# Measurements taken from ChEMBL document CHEMBL4888484, “Replenishing the malaria drug discovery pipeline: Screening and hit evaluation of the MMV Hit Generation Library 1 (HGL1) against asexual blood stage Plasmodium falciparum ,using a nano luciferase reporter read-out” (2022).
# The whole screen tested about 150,000 compounds, of which about 540 (0.36%) showed an effect of 50% or more. Some of the results follow.
# Tested on: Plasmodium falciparum
# Test: Primary screen in NF54 nanoGlo assay, in single point, at 2uM, 72h; a lower Z score goes with more inhibition
# Format: functional, Erythrocyte
# Details: timepoint 72 hour
Compound,% Inhibition [%],Z score
Cc1ccc(-c2noc(CN3CCC[C@H]3c3ccc[nH]3)n2)cc1,11,-1.99
COc1cccc(C(=O)N2CCN(C(=O)c3ncc(F)cc3F)CC2)c1,-2,0.32
O=C(Cc1nc2ccccc2[nH]1)N1C[C@H]2CC[C@@H](C1)N(CC1CC1)C2=O,-3,0.41
CC1(C)C(NCCN2CCN(C(=O)C3CCCC3)CC2)[C@@H]2CCCC[C@@H]21 (stereo partly drawn),4,-0.55
Cc1ncoc1C(=O)NCc1cc(Cl)cc2c(C)c(-c3ccccc3)[nH]c12,-9,1.88
CC(C)CNC(=O)c1cc(Cc2ccc(F)cc2)no1,6,-0.82
CC(C)c1nnc(N2C[C@@H]3CN(C(=O)C4CCC4)C[C@]3(C(=O)O)C2)s1,-12,1.16
C[C@H]1CN(C2CCOCC2)CCN1C(=O)NCCOC1CCCCC1,-13,1.71
C[C@H](NC(=O)NCc1nccn1C)C1CCCCC1,-1,0.08
COc1ccc(F)c(CN2CCC[C@@]3(CCN(C(=O)c4cc(C)oc4C)C3)C2)c1,-20,1.85
OCc1csc(N2CCn3nc(CO)cc3C2)n1,1,-0.1
CC(C)Cc1nc(C(=O)N2CC[C@](C)(CN)C2)cs1,4,-0.7
CC(C)c1ncc(C(=O)N2CCC[C@H](c3[nH]ncc3-c3ccccc3)C2)c(=O)[nH]1,3,-0.52
CCC[C@H](C)N1CC2(CCN(C(=O)Cn3nccc3C)CC2)OC1=O,-16,2.94
C[C@H](NCc1cn(C)cn1)c1ccc(OCC2CC2)c(F)c1,-6,0.72
Cc1ccoc1C(=O)Nc1cc(C(C)C)n[nH]1,-13,2.53
O=C(c1cccs1)N1CCC(CCOc2ccccc2F)CC1,-6,1.16
O=C(Nc1nc2c(s1)CN(S(=O)(=O)c1cccnc1)CC2)c1ccco1,-22,3.28
NC(=NCc1ccc2c(c1)CCC2)N1CCN(c2nccs2)CC1,0,-0.01
CCOC(=O)c1csc(N(C)C(=O)[C@@H]2CCCc3nn(C)cc32)n1,-10,1.52
O=c1[nH]c2ccccc2n1-c1nc2ccccc2[nH]1,5,-0.93

Compound,% Inhibition [%],Z score
Nc1c(S(=O)(=O)c2ccc(Cl)cc2)c2nc3ccccc3nc2n1Cc1ccc(Cl)cc1,-9,0.81
CN(C(=O)c1cc2c(cc1Br)NC(=O)CO2)[C@H](c1ccccc1)c1ncc[nH]1,-2,0.26
CC(=O)c1ccc(NC(=O)Cn2c(-n3nc(C)cc3C)nc3c(c2=O)CCC3)cc1,23,-3.07
Cc1ccccc1Oc1ccc(S(=O)(=O)N[C@H]2CCN(c3nccs3)C2)cc1,-5,0.94
COc1ccc(S(=O)(=O)Oc2ccccc2CN(C(=O)C2CCC2)C(C)C)cc1,-2,0.25
CC(C)c1cc(NCc2cc(C(F)F)on2)n2ncnc2n1,1,-0.25
CC1CCC(O)(CNc2ncnc3[nH]ncc23)CC1 (stereo not drawn),-10,1.6
CCCN1CCC(NCc2ccc(-c3cccc(Cl)c3Cl)o2)CC1,55,-11.87
O=C(COc1ccc(Cl)cc1)N1CC(=O)N2CCc3ccccc3[C@@H]2C1,-8,1.08
O=C(CN1C(=O)c2ccccc2Oc2ncccc21)Nc1ccc(Oc2ccc3c(c2)OCO3)nc1,-1,0.11
Brc1cnn(CCO[C@@H]2CCCCO2)c1,-8,0.83
CCC(CC)c1nnc(NC(=O)CCc2nc3ccccc3c(=O)[nH]2)s1,2,-0.38
COCCN1C[C@]2(CCCN(C(=O)c3cccc(C)c3O)C2)CCC1=O,-5,0.97
CCCn1nnnc1NC(=O)COc1ccc(C)cc1C,0,0.03
Cc1cccc(-n2c(=O)c3sccc3n(CC(=O)NCc3ccc(F)cc3F)c2=O)c1C,37,-5.3
O=C(COc1ccccc1)Nc1nnc(CCCc2ccccc2)s1,6,-1.05
COCc1nc(C)c(CNC(=O)C[C@H](C)n2cccn2)s1,-18,2.36
CCn1cc(Cl)c(C(=O)N2CCCC[C@H]2c2nncn2C)n1,-6,0.69
CCNC(=O)[C@H]1Cc2ccccc2CN1Cc1ncccn1,-4,0.46
CC(NC(=O)CN1CCCC(c2nnc3ccccn23)C1)C(=O)N1CCCCC1 (stereo not drawn),9,-1.25
CCc1ccc(CN(C)C(=O)Nc2cccc(CN3CCCC[C@@H]3C)c2)nc1,-6,0.95

Compound,% Inhibition [%],Z score
Cc1c(C(=O)N2CCC(C)CC2)c(S(=O)(=O)N2CC(=O)Nc3ccccc32)c(C)n1C,-7,1.23
O=C(c1ccc(-c2ccccc2)cc1)N(Cc1cccc(Cl)c1)Cc1nc2cc(Cl)ccc2o1,-3,0.28
Cc1cc(C)nc(NS(=O)(=O)c2ccc(-n3cnnn3)cc2)n1,-31,3.64
Cc1cccc(-c2ncccc2CNS(=O)(=O)Cc2cc(F)cc(F)c2)c1,-6,1.09
OC[C@H]1CCN(c2ncccc2Cl)C[C@@H]1O,6,-0.85
O=C(COc1ccc(Br)cc1)NCCc1nc(-c2ccccc2)no1,-1,0.21
Cc1ncsc1C(=O)N1CCN(CC(C)C)[C@@H]2CS(=O)(=O)C[C@@H]21,-5,0.93
CCOC(=O)c1cc(-c2ccc(F)cc2)n(C2CCN(C(=O)c3cc(C(F)(F)F)cc(C(F)(F)F)c3)CC2)n1,4,-0.48
CCc1ccc([C@H](C)NC(=O)c2ccc3[nH]cc(C(=O)C(=O)N4CCCCCC4)c3c2)cc1,1,-0.23
O=C(O)c1cc(-c2cc3ccccc3cc2O)nc2ccc3nn(-c4ccccc4)nc3c12,5,-0.57
Cc1[nH]nc(NS(=O)(=O)[C@@H](C)C(=O)N(C)C)c1CC(C)C,-4,0.7
COc1ccc(-n2nc(C)c([C@@H]3C=C[C@@H](NCc4ccc(N(C)C)cc4)C3)c2C)cc1,-4,0.66
CCCN(CCc1cccc(F)c1)C(=O)Nc1cccc(N2CCOC2=O)c1C,-11,1.34
Cn1cc(S(=O)(=O)N(CCO)C2CCC2)cc1C(N)=O,-13,1.14
CCN1CCC(NC(=O)c2cc3c(s2)CCCCC3)CC1,-9,1.28
CC(C)N1C[C@@H](C(=O)Nc2ccc(-n3cc(Br)cn3)nc2)CC1=O,3,-0.49
Cc1cccc(-c2ccnc3nc(N4CCN(C(=O)c5cc(F)ccc5C)CC4)nn23)c1,-6,0.56
CS(=O)(=O)N1CCc2[nH]cnc2C12CCN(c1ncccn1)CC2,-11,2.01
Cc1cc(C)n2ncc(CN(C)CCc3scnc3C)c2n1,-2,0.36
O=C(Nc1ccc(C(=O)N2CCc3sccc3C2)cc1)c1cccs1,-7,1.36
O=C(CO)N1C(=O)COc2ccccc21,-43,5.1

Compound,% Inhibition [%],Z score
COc1ccc(-c2cc(CO)ncc2F)c(OC)n1,-11,1.58
O=C1C[C@H](NC(=O)NCc2cccs2)CN1,-11,2.21
CCCN(CCc1cccc(F)c1)C(=O)N[C@H]1CCn2ccnc21,14,-2.05
Cc1ccccc1CC(=O)N1CC2(C[C@@H](C(=O)NC(C)C)N(C)C2)C1,-7,0.87
Cn1ccc(CCNC(=O)[C@@H]2COCCN2CC(F)F)n1,5,-0.78
NC[C@H]1CCCN1C(=O)Cc1c(Cl)cccc1Cl,-1,0.18
O=C1c2ccccc2[C@H]2NC(=O)C3(CCCCC3)N12,-1,0.11
COC[C@@](C)(O)CNC(=O)NCc1ccccc1,-3,0.49
COC(=O)c1csc(-n2nc(-c3ccc(C)cc3)cc2NC(C)=O)n1,4,-0.78
Cn1ccc2ccc(NCC(=O)N3CCCCC3)cc2c1=O,-8,0.94
COCc1ccc(CN2CCC(CCC(=O)N(C)Cc3ccccc3)CC2)o1,8,-0.99
FC(F)(F)c1cnc(N2CCC(n3ccnn3)CC2)s1,-9,0.95
CCN(c1ccnc(N)n1)C1CCCC1,4,-0.45
CCn1cc(C)c(C(=O)O)c1CC(=O)NC1CCCCC1,-3,0.4
CCc1nc(Cn2ncn3cccc3c2=O)cs1,-11,2.11
C[C@@H](c1ccccc1)n1cnc2c1c(=O)n(CCc1ccccc1)c(=O)n2-c1ccc(Cl)cc1,2,-0.43
Nc1nnnn1NCc1cc(Br)ccc1OCc1ccccc1Cl,-41,4.84
CCNC(=O)CNC(=O)N1CCC(Cc2ccccc2)C1C (stereo not drawn),-10,2.01
Cc1ccc(Cn2cccc2CN(Cc2ccccc2C#N)CC2CCCCC2)cc1,-4,0.75
CC1CC(NC2CCCC(S(C)(=O)=O)C2)CC(C)(C)C1 (stereo not drawn),-2,0.15
COC(=O)[C@@H]1CCCN1CC(=O)N(CC(F)(F)F)C(C)C,-3,0.36
